Structures are written as SMILES. Some of the results follow. Single values of this set are uncertain. Values with irradiation are relative to irradiated vehicle.
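Further: viability correction based on the alamar blue assay, with concentrations leaving 10% survival or less dropped.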

The assay concerns A549-Dual. Nature of the assay: NF-kB reporter (SEAP) activity, viability-corrected, relative to vehicle (fold change vs vehicle); higher = more activation of STING-IRF / NF-kB immune response reporter. The following applies: 10 µM; irradiation: none.
For the compound `O=c1cc(O)c(Cl)c[nH]1` [Gimeracil], the NF-kB reporter was 0.854.

As for `O=C(O)c1cc(=O)[nH]c(=O)[nH]1` [Orotic acid (6-Carboxyuracil)], the NF-kB reporter was 0.696.

As to `CNCC(O)C(O)C(O)C(O)CO.CNCC(O)C(O)C(O)C(O)CO.O=C(O)CN1CCN2CCN(CC(=O)O)CC(=O)[O][Gd]([O]C(=O)C2)[O]C(=O)C1` [Gadopentetate Dimeglumine], the NF-kB reporter was 0.72.

`CS(=O)(=O)O.Cc1c(O)cccc1C(=O)NC(CSc1ccccc1)C(O)CN1CC2CCCCC2CC1C(=O)NC(C)(C)C` (stereo not drawn) [Nelfinavir Mesylate] displayed an NF-kB reporter of 0.744.

In turn, `CCN1CCCC1CNC(=O)c1cc(S(=O)(=O)CC)c(N)cc1OC` (stereo not drawn) [Amisulpride] showed an NF-kB reporter of 0.914.

Take `CC(=O)NC(CC(C)C)C(=O)O` (stereo not drawn) [Acetylleucine]: the NF-kB reporter was 0.784.

As to `NC(Cc1cc(I)c(Oc2cc(I)c(O)c(I)c2)c(I)c1)C(=O)[O-].[Na+]` (stereo not drawn) [Levothyroxine sodium], the NF-kB reporter amounted to 1.14.

`Cl.O=C1C2CCCCC2C(=O)N1CCCCN1CCN(c2nsc3ccccc23)CC1` (stereo not drawn) [Perospirone hydrochloride] had an NF-kB reporter of 0.795.

Turning to `CCOC(=O)C1=CC2(CC)CCCN3CCc4c(n1c1ccccc41)C32` (stereo not drawn) [Vinpocetine], the NF-kB reporter worked out at 0.589.

Regarding `COc1ccccc1OCCNCC(O)COc1cccc2[nH]c3ccccc3c12.O=P(O)(O)O` (stereo not drawn) [Carvedilol Phosphate], the NF-kB reporter is 0.818.

`COc1ccccc1OCCNCC(O)COc1cccc2[nH]c3ccccc3c12` (stereo not drawn) [Carvedilol] had an NF-kB reporter of 0.928.

As for `COc1ccc(C(=O)c2ccc(C)cc2)c(O)c1` [Mexenone], the NF-kB reporter came to 0.43.

The compound `CCOCCn1c(N2CCCN(C)CC2)nc2ccccc21.O=C(O)/C=C/C(=O)O.O=C(O)/C=C/C(=O)O` [Emedastine Difumarate] came in with an NF-kB reporter of 1.56.

Compound `CNC1C(O)C(NC)C2OC3(O)C(=O)CC(C)OC3OC2C1O.Cl.Cl` (stereo not drawn) [Spectinomycin 2HCl] came in with an NF-kB reporter of 1.03.

`CC1=C(C(=O)O)N2C(=O)C(NC(=O)C(N)c3ccccc3)C2SC1` (stereo not drawn) [Cephalexin] came in with an NF-kB reporter of 0.942.

The compound `CC(=O)O.Cc1c(-c2ccc(O)cc2)n(Cc2ccc(OCCN3CCCCCC3)cc2)c2ccc(O)cc12` [Bazedoxifene Acetate] yielded an NF-kB reporter of 1.01.

Take `O=C([O-])P(=O)([O-])[O-].[Na+].[Na+].[Na+]` [Foscarnet Sodium]: the NF-kB reporter came out at 1.56.

Regarding `CN(C)CCOC(c1ccccc1)c1ccccc1.Cn1c(=O)c2[nH]c(Cl)nc2n(C)c1=O` [Dimenhydrinate], the NF-kB reporter is 1.

In turn, `OCC1OC(OC2C(CO)OC(O)C(O)C2O)C(O)C(O)C1O` [D-(+)-Cellobiose] showed an NF-kB reporter of 0.756.

As to `O=C1C(O)=C(C2CCC(c3ccc(Cl)cc3)CC2)C(=O)c2ccccc21` (stereo not drawn) [Atovaquone], the NF-kB reporter came out at 1.63.

As to `COC(=O)C1C(C)C(OC)/C=C/OC2(C)Oc3c(C)c(O)c4c(O)c(cc([O-])c4c3C2=O)NC(=O)/C(C)=C\C=C\C(C)C(O)C(C)C(O)C1C.[Na+]` (stereo not drawn) [Rifamycin sodium salt], the NF-kB reporter was found to be 1.17.

The compound `Br.Cc1ccc(Sc2ccccc2N2CCNCC2)c(C)c1` showed an NF-kB reporter of 1.35.

In turn, `CC(Cn1cnc2c(N)ncnc21)OCP(=O)(O)O` (stereo not drawn) [Tenofovir] had an NF-kB reporter of 0.958.

With `COC(=O)C1=C(C)NC(C)=C(C(=O)OCCN(C)Cc2ccccc2)C1c1cccc([N+](=O)[O-])c1.Cl` (stereo not drawn) [Nicardipine HCl], the NF-kB reporter was 1.46.

As to `Br.COc1ccc2c3c1OC1CC(O)C=CC31CCN(C)C2` (stereo not drawn) [Galanthamine HBr], the NF-kB reporter worked out at 1.25.

Consider `COc1cc(N)c(Cl)cc1C(=O)NC1CCN(CCCOc2ccc(F)cc2)CC1OC.O` (stereo not drawn) [Cisapride hydrate], for which the NF-kB reporter stood at 0.849.

`CCCCCCCCCCCCCCC(=O)O` [Pentadecanoic acid] showed an NF-kB reporter of 0.804.

`CCCSc1ccc2nc(NC(=O)OC)[nH]c2c1` [Albendazole] displayed an NF-kB reporter of 1.89.

The values are drawn from the supplement of paper PMC9174493.
